Assay [1] has as its system SDMA in HAP1 MTAP-deleted (MTAP-null) cell line (PRMT5 inhibition). Description: SDMA in-cell western assay, HAP1 MTAP-deleted cell line. The note with it: for IC50 / IC90: Homo sapiens; for IC50: HAP1, read-out: Hap1 MTAP deleted IC50; for IC90: HAP1, read-out: Hap1 MTAP deleted IC90; for Hap1 MTAP intact/deleted ratio: ratio of SDMA IC50 in HAP1 MTAP-intact to HAP1 MTAP-deleted cell line.

Assay [2] concerns SDMA in HAP1 MTAP-intact cell line (PRMT5 inhibition). Briefly: SDMA in-cell western assay, HAP1 MTAP-intact cell line. As to conditions: Homo sapiens, HAP1, read-out: Hap1 MTAP intact IC50.
In assay [3] the test system is HAP1 MTAP-deleted cell line. Briefly: Viability assay, HAP1 MTAP-deleted cell line. The class given is cell-based. The note with it: Homo sapiens; viability assay, HAP1 MTAP-deleted cell line; read-out: Hap1 MTAP deleted viability IC50.

Regarding `C[C@H](c1ccc(C(F)(F)F)cc1)N(C)C(=O)C(=O)Nc1cnc(N)c2c1cnn2C` [Compound 80, N-(7-Amino-1-methyl-pyrazolo[3,4-c]pyridin-4-yl)-N′-methyl-N′—[(1R)-1-[4-(trifluoromethyl)phenyl]ethyl]oxamide], in assay [1], the IC50 is < 5 nM, the IC90 was < 75 nM and the “Hap1 MTAP intact/deleted ratio” value is “A (IC50 ratio greater than or equal to 30 fold)”. Further, in assay [2], the IC50 is > 50 nM. For the same molecule, the IC50 in assay [3] is < 100 nM.

As for `Nc1ncc(NC(=O)C(=O)N(Cc2ccc(C(F)(F)F)cn2)C2CCC2)c2[nH]ncc12` [Compound 61, N-(4-Amino-2H-pyrazolo[4,3-c]pyridin-7-yl)-N′-cyclobutyl-N′-[[5-(trifluoromethyl)-2-pyridyl]methyl]oxamide], in assay [1], the IC50 was < 5 nM, the concentration for an effect of 90% (IC90) was < 75 nM and the “Hap1 MTAP intact/deleted ratio” value is “B (IC50 ratio greater than or equal to 15 fold but lower than 30 fold)”. In addition, in assay [2], the IC50 fell in the range of 5 to 50 nM. Besides, the IC50 in assay [3] was < 100 nM.

With `CN(Cc1ccc(C(F)(F)F)cc1Cl)C(=O)C(=O)Nc1cnc(N)c2cn[nH]c12` [Compound 137], the IC50 in assay [1] was < 5 nM; in assay [2], > 50 nM; in assay [3], 100 to 1000 nM. Also, the “Hap1 MTAP intact/deleted ratio” value in assay [1] is given as “A (IC50 ratio greater than or equal to 30 fold)”.

As to `CC(c1ccc(C(F)(F)C(F)(F)F)cc1)N(C)C(=O)C(=O)Nc1cnc(N)c2cn[nH]c12` (stereo not drawn) [Compound 123, N-(4-amino-1H-pyrazolo[4,3-c]pyridin-7-yl)-N′-methyl-N′-[1-[4-(1,1,2,2,2-pentafluoroethyl)phenyl]ethyl]oxamide], in assay [1], the IC50 is < 5 nM, the IC90 was < 75 nM and the “Hap1 MTAP intact/deleted ratio” value was “B (IC50 ratio greater than or equal to 15 fold but lower than 30 fold)”. Also, the IC50 in assay [2] was in the range of 5 to 50 nM. Moreover, the IC50 in assay [3] was < 100 nM.

For the molecule `Cc1cc(NC(=O)C(=O)N(Cc2ccc(C(F)(F)F)cn2)[C@@H]2CCc3ccccc32)cnc1N` [Compound 1, (R)—N^1-(6-amino-5-methylpyridin-3-yl)-N^2-(2,3-dihydro-1H-inden-1-yl)-N^2-((5-(trifluoromethyl)pyridin-2-yl)methyl)oxalamide], the IC50 in assay [1] was < 5 nM; in assay [2], 5 to 50 nM; in assay [3], < 100 nM. In addition, the IC90 in assay [1] is < 75 nM. The “Hap1 MTAP intact/deleted ratio” value in assay [1] is listed as “C (IC50 ratio of less than 15 fold)”.

Source of the values: patent publication US20250136594A1 (Tango Therapeutics, Inc., priority 2022, published 2025).
